{
  "source": "the supplement of paper PMC10320760",
  "parents": {"B1": {"name": "Ydj1; a variant is named by its letters at X, in order (parent)", "chain": "MVKETKFYDILGVPVTATDVEIKKAYRKCALKYHPDKNPSEEAAEKFKEASAAYEILSDPEKRDIYDQFGEDGLSGAGGAGGFPGGGFGFGDDIFSQFFGAGGAQRPRGPQRGKDIKHEISASLEELYKGRTAKLALNKQILCKECEGRGGKKGAVKKCTSCNGQGIKFVTRQMGPMIQRFQTECDVCHGTGDIIDPKDRCKSCNGKKVENERKILEVHVEPGMKDGQRIVFKGEADQAPDVIPGDVVFIVSERPHKSFKRDGDDLVYEAEIDLLTAIAGGEFALEHVSGDWLKVGIVPGEVIAPGMRKVIEGKGMPIPKYGGYGNLIIKFTIKFPENHFTSEENLKKLEEILPPRIVPAIPKKATVDECVLADFDPAKYNRTRASRGGANYDSDEEEQGGEGVQCXXX"}},
  "note": "Single values of this set are uncertain.",
  "data": [
    {"variants_of": "B1", "experiment": "enrichment factor, frequency at 37 °C / frequency at 25 °C (thermotolerance selection) (ratio); higher = more growth at 37 °C, higher likelihood of farnesylation", "details": "with Saccharomyces cerevisiae ydj1Δ (yWS304); selective temperature 37 °C; reference temperature 25 °C", "values": [
      {"variant": "ATN", "enrichment factor": 1.75},
      {"variant": "ATM", "enrichment factor": 1.49},
      {"variant": "ATI", "enrichment factor": 1.82},
      {"variant": "ATH", "enrichment factor": 1.51},
      {"variant": "ATF", "enrichment factor": 2.25},
      {"variant": "CTM", "enrichment factor": 1.37},
      {"variant": "CTA", "enrichment factor": 1.58},
      {"variant": "CTI", "enrichment factor": 0.421},
      {"variant": "CTE", "enrichment factor": 1.89},
      {"variant": "CTD", "enrichment factor": 2.07},
      {"variant": "CTG", "enrichment factor": 1.51},
      {"variant": "CTK", "enrichment factor": 1.23},
      {"variant": "CTQ", "enrichment factor": 1.42},
      {"variant": "CTP", "enrichment factor": 0.814},
      {"variant": "CTN", "enrichment factor": 1.52},
      {"variant": "CTH", "enrichment factor": 1.62},
      {"variant": "CTC", "enrichment factor": 0.459},
      {"variant": "CTL", "enrichment factor": 1.41},
      {"variant": "CTF", "enrichment factor": 0.711},
      {"variant": "MSY", "enrichment factor": 1.92},
      {"variant": "MSW", "enrichment factor": 1.74},
      {"variant": "VTM", "enrichment factor": 2.08},
      {"variant": "VTE", "enrichment factor": 1.16},
      {"variant": "VTL", "enrichment factor": 1.9},
      {"variant": "VTA", "enrichment factor": 2.13},
      {"variant": "VTN", "enrichment factor": 1.42},
      {"variant": "VTG", "enrichment factor": 1.83},
      {"variant": "VTK", "enrichment factor": 1.52},
      {"variant": "VTI", "enrichment factor": 1.97},
      {"variant": "VTP", "enrichment factor": 0.0901},
      {"variant": "VTC", "enrichment factor": 3.1},
      {"variant": "VTF", "enrichment factor": 2.28},
      {"variant": "VTD", "enrichment factor": 1.5},
      {"variant": "VTH", "enrichment factor": 2.12},
      {"variant": "VTQ", "enrichment factor": 1.55},
      {"variant": "RTH", "enrichment factor": 2.28},
      {"variant": "RTP", "enrichment factor": 0.0987},
      {"variant": "RTM", "enrichment factor": 2.13},
      {"variant": "RTD", "enrichment factor": 1.47},
      {"variant": "RTE", "enrichment factor": 1.17},
      {"variant": "RTQ", "enrichment factor": 1.53},
      {"variant": "RTI", "enrichment factor": 1.69},
      {"variant": "RTC", "enrichment factor": 1.13},
      {"variant": "RTN", "enrichment factor": 1.97},
      {"variant": "RTG", "enrichment factor": 1.57},
      {"variant": "RTL", "enrichment factor": 1.87},
      {"variant": "RTF", "enrichment factor": 1.57},
      {"variant": "RTA", "enrichment factor": 1.58},
      {"variant": "RTK", "enrichment factor": 0.282},
      {"variant": "GTH", "enrichment factor": 1.74},
      {"variant": "GTP", "enrichment factor": 0.162},
      {"variant": "GTF", "enrichment factor": 1.65},
      {"variant": "GTI", "enrichment factor": 1.69},
      {"variant": "GTR", "enrichment factor": 0.184},
      {"variant": "GTM", "enrichment factor": 1.4},
      {"variant": "GTK", "enrichment factor": 0.152},
      {"variant": "GTD", "enrichment factor": 0.366},
      {"variant": "GTA", "enrichment factor": 1.76},
      {"variant": "GTE", "enrichment factor": 0.255},
      {"variant": "GTG", "enrichment factor": 1.35},
      {"variant": "GTQ", "enrichment factor": 1.29},
      {"variant": "GTL", "enrichment factor": 1.37},
      {"variant": "GTC", "enrichment factor": 1.19},
      {"variant": "GTN", "enrichment factor": 1.65},
      {"variant": "ESY", "enrichment factor": 1.23},
      {"variant": "ESW", "enrichment factor": 1.57},
      {"variant": "DSY", "enrichment factor": 0.277},
      {"variant": "DSW", "enrichment factor": 0.22},
      {"variant": "QTM", "enrichment factor": 2.14},
      {"variant": "QTA", "enrichment factor": 1.88},
      {"variant": "QTP", "enrichment factor": 0.141},
      {"variant": "QTG", "enrichment factor": 1.6},
      {"variant": "QTF", "enrichment factor": 1.94},
      {"variant": "QTL", "enrichment factor": 2.87},
      {"variant": "QTC", "enrichment factor": 1.94},
      {"variant": "QTK", "enrichment factor": 0.481},
      {"variant": "QTH", "enrichment factor": 1.83},
      {"variant": "QTI", "enrichment factor": 2.38},
      {"variant": "QTD", "enrichment factor": 1.39},
      {"variant": "QTN", "enrichment factor": 1.83},
      {"variant": "QTE", "enrichment factor": 0.878},
      {"variant": "QTQ", "enrichment factor": 2.1},
      {"variant": "LTE", "enrichment factor": 0.958},
      {"variant": "LTM", "enrichment factor": 1.92},
      {"variant": "LTK", "enrichment factor": 0.64},
      {"variant": "LTG", "enrichment factor": 1.33},
      {"variant": "LTH", "enrichment factor": 1.41},
      {"variant": "LTP", "enrichment factor": 0.139},
      {"variant": "LTF", "enrichment factor": 1.18},
      {"variant": "LTQ", "enrichment factor": 1.49},
      {"variant": "LTN", "enrichment factor": 1.28},
      {"variant": "LTL", "enrichment factor": 1.22},
      {"variant": "LTC", "enrichment factor": 0.0912},
      {"variant": "LTA", "enrichment factor": 1.41},
      {"variant": "LTD", "enrichment factor": 1.37},
      {"variant": "LTI", "enrichment factor": 1.61},
      {"variant": "ASW", "enrichment factor": 1.32},
      {"variant": "ASY", "enrichment factor": 1.75},
      {"variant": "RSW", "enrichment factor": 1.39},
      {"variant": "RSY", "enrichment factor": 1.35},
      {"variant": "TSV", "enrichment factor": 1.93},
      {"variant": "TSW", "enrichment factor": 1.89},
      {"variant": "TSY", "enrichment factor": 2.37},
      {"variant": "KSY", "enrichment factor": 1.87},
      {"variant": "KSW", "enrichment factor": 1.86},
      {"variant": "KTF", "enrichment factor": 2.52},
      {"variant": "KTH", "enrichment factor": 1.89},
      {"variant": "KTG", "enrichment factor": 1.64},
      {"variant": "KTE", "enrichment factor": 1.34},
      {"variant": "KTI", "enrichment factor": 1.57},
      {"variant": "KTN", "enrichment factor": 1.98},
      {"variant": "KTQ", "enrichment factor": 1.98},
      {"variant": "KTL", "enrichment factor": 1.96},
      {"variant": "KTD", "enrichment factor": 1.38},
      {"variant": "KTA", "enrichment factor": 1.5},
      {"variant": "KTC", "enrichment factor": 1.82},
      {"variant": "KTM", "enrichment factor": 1.79},
      {"variant": "KTK", "enrichment factor": 0.13},
      {"variant": "KTR", "enrichment factor": 0.239},
      {"variant": "KTP", "enrichment factor": 0.204},
      {"variant": "DTC", "enrichment factor": 1.7},
      {"variant": "DTR", "enrichment factor": 0.143},
      {"variant": "DTG", "enrichment factor": 0.216},
      {"variant": "DTF", "enrichment factor": 1.76},
      {"variant": "DTM", "enrichment factor": 1.74},
      {"variant": "DTN", "enrichment factor": 0.934},
      {"variant": "DTP", "enrichment factor": 0.184},
      {"variant": "DTA", "enrichment factor": 0.656},
      {"variant": "DTE", "enrichment factor": 0.165},
      {"variant": "DTH", "enrichment factor": 1.87},
      {"variant": "DTK", "enrichment factor": 0.175},
      {"variant": "DTQ", "enrichment factor": 1.53},
      {"variant": "DTL", "enrichment factor": 0.35},
      {"variant": "DTD", "enrichment factor": 0.152},
      {"variant": "DTI", "enrichment factor": 0.606},
      {"variant": "FTP", "enrichment factor": 1.38},
      {"variant": "FTR", "enrichment factor": 0.241},
      {"variant": "FTC", "enrichment factor": 1.81},
      {"variant": "FTH", "enrichment factor": 1.92},
      {"variant": "FTN", "enrichment factor": 1.87},
      {"variant": "FTK", "enrichment factor": 0.253},
      {"variant": "FTF", "enrichment factor": 2.2},
      {"variant": "FTD", "enrichment factor": 0.934},
      {"variant": "FTA", "enrichment factor": 4.14},
      {"variant": "FTQ", "enrichment factor": 2.17},
      {"variant": "FTM", "enrichment factor": 2.9},
      {"variant": "FTI", "enrichment factor": 3.66},
      {"variant": "FTE", "enrichment factor": 0.411},
      {"variant": "FTL", "enrichment factor": 2.21},
      {"variant": "FTG", "enrichment factor": 1.54},
      {"variant": "ETE", "enrichment factor": 0.486},
      {"variant": "ETQ", "enrichment factor": 1.59},
      {"variant": "ETI", "enrichment factor": 1.35},
      {"variant": "ETH", "enrichment factor": 1.4},
      {"variant": "ETK", "enrichment factor": 0.355},
      {"variant": "ETP", "enrichment factor": 0.168},
      {"variant": "ETM", "enrichment factor": 2.05},
      {"variant": "ETA", "enrichment factor": 1.5},
      {"variant": "ETG", "enrichment factor": 1.65},
      {"variant": "ETD", "enrichment factor": 0.528},
      {"variant": "ETC", "enrichment factor": 2.36},
      {"variant": "ETF", "enrichment factor": 1.78},
      {"variant": "ETN", "enrichment factor": 1.15},
      {"variant": "ETR", "enrichment factor": 0.224},
      {"variant": "ETL", "enrichment factor": 2.2},
      {"variant": "QSY", "enrichment factor": 2.22},
      {"variant": "QSW", "enrichment factor": 1.64}
    ]}
  ]
}
